Drawing on the supplement of paper PMC6609913, this text covers normalised cell viability for 50 molecules.

Counter-ions that a name gives are not always drawn. ± gives the standard deviation of the averaged measurements. Whole data set: some 1,300 compounds, median “normalised cell viability” near 1, cut for the lowest 2% near 0.14. Some of the results follow.

The test concerns V-C8 (BRCA2-deficient hamster cells). The test is described as follows: normalised cell viability (fraction of plate median); higher = more viable cells (less toxic). Conditions: 5 µM. An outline of the steps:
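Cell viability was measured with a resazurin assay, normalised to the plate median (modified robust per cent of sample) and averaged over triplicate wells. Hamster V-C8 cells lacking BRCA2 and V-C8 cells with BRCA2 restored were seeded in 96-well plates. After 24 h, library drugs from 10 mM DMSO stocks were added at a final 5 μM in 100 μl medium and left for 3 days (screen 1) or 6 days (screen 2), with solvent-only wells alongside.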

Consider `O=[N+]([O-])c1cc([As](=O)(O)O)ccc1O` [Roxarsone], for which the normalised cell viability came out at 1.049 ± 0.0048 (treatment time: 3 days) and 1.09 ± 0.012 (treatment time: 6 days).
Turning to `COc1ccc(CCN2CCC(Nc3nc4ccccc4n3Cc3ccc(F)cc3)CC2)cc1` [Astemizole], the normalised cell viability (treatment time: 3 days) is 0.13 ± 0.0054 and the normalised cell viability (treatment time: 6 days) was determined as 0.099 ± 0.003.
With `CC(=O)O[C@H]1C[C@H](O[C@H]2[C@@H](O)C[C@H](O[C@H]3[C@@H](O)C[C@H](O[C@H]4CC[C@@]5(C)[C@H](CC[C@@H]6[C@@H]5C[C@@H](O)[C@]5(C)[C@@H](C7=CC(=O)OC7)CC[C@]65O)C4)O[C@@H]3C)O[C@@H]2C)O[C@H](C)[C@H]1O[C@@H]1O[C@H](CO)[C@@H](O)[C@H](O)[C@H]1O` [Lanatoside C], the normalised cell viability is, setting by setting: (treatment time: 3 days) 0.974 ± 0.08; (treatment time: 6 days) 1.06 ± 0.011.
Regarding `Oc1cc(Cl)ccc1Oc1ccc(Cl)cc1Cl` [Triclosan], the normalised cell viability was 0.974 ± 0.022 (treatment time: 3 days) and 1 ± 0.02 (treatment time: 6 days).
Taken in the same sequence, the figures for `C[N+]1([O-])[C@@H]2C[C@@H](OC(=O)[C@H](CO)c3ccccc3)C[C@H]1[C@@H]1O[C@@H]12` (stereo not given in full) [Scopolamin-N-oxide hydrobromide] were 0.997 ± 0.074 and 0.945 ± 0.092.
The like results for `C[C@]12N[C@H](Cc3ccccc31)c1ccccc12` [Dizocilpine maleate] were, in that order, 1.02 ± 0.042 and 1 ± 0.059.
For `CCN(CC)C(C)C(=O)c1ccccc1` (stereo not given) [Amfepramone hydrochloride], the normalised cell viability (treatment time: 3 days) was determined as 1.07 ± 0.1 and the normalised cell viability (treatment time: 6 days) was 1.14 ± 0.085.
On to `O[C@@H]1CCCC[C@H]1N1CCC(c2ccccc2)CC1` [L(-)-vesamicol hydrochloride], for which the normalised cell viability runs as follows: (treatment time: 3 days) 1.07 ± 0.013; (treatment time: 6 days) 1.03 ± 0.048.
For the molecule `COc1ccc(Cc2nccc3cc(OC)c(OC)cc23)cc1OC` [Papaverine hydrochloride], the normalised cell viability by setting is: (treatment time: 3 days) 0.655 ± 0.1; (treatment time: 6 days) 0.636 ± 0.0089.
The like results for `CCC1(CC)C(=O)C=CNC1=O` [Pyrithyldione] were, in that order, 1.02 ± 0.057 and 1.03 ± 0.032.
The like results for `Fc1ccc(C(OCCN2CCN(CCCc3ccccc3)CC2)c2ccc(F)cc2)cc1` were, in that order, 0.159 ± 0.0052 and 0.182 ± 0.012.
In the case of `CC(C)(C)NCC(O)c1cc(Cl)c(N)c(Cl)c1` (stereo not given) [Clenbuterol hydrochloride], the normalised cell viability was 1.18 ± 0.031 (treatment time: 3 days) and 1.03 ± 0.076 (treatment time: 6 days).
The molecule `CC[C@@]1(O)C(=O)OCc2c1cc1n(c2=O)Cc2cc3ccccc3nc2-1` [Camptothecine (S,+)] displayed a normalised cell viability (treatment time: 3 days) of 0.148 ± 0.0039 and a normalised cell viability (treatment time: 6 days) of 0.109 ± 0.008.
The like results for `CCC(=O)O[C@@](Cc1ccccc1)(c1ccccc1)[C@@H](C)CN(C)C` [Levopropoxyphene napsylate] were, in that order, 0.958 ± 0.074 and 1.06 ± 0.084.
Taken in the same sequence, the figures for `C[N+](C)(C)CCCCCCCCCC[N+](C)(C)C` [Decamethonium bromide] were 1.18 ± 0.34 and 1.019 ± 0.0077.
Taken in the same sequence, the figures for `c1ccc2nc(N3CCNCC3)ccc2c1` [Quipazine dimaleate salt] were 1.1 ± 0.03 and 0.944 ± 0.11.
`CN1C[C@H](C(=O)N[C@]2(C)O[C@@]3(O)[C@@H]4CCCN4C(=O)[C@H](Cc4ccccc4)N3C2=O)C[C@@H]2c3cccc4[nH]cc(c34)C[C@H]21` [Dihydroergotamine tartrate]: the normalised cell viability is, setting by setting: (treatment time: 3 days) 1.06 ± 0.024; (treatment time: 6 days) 1.02 ± 0.12.
With `C[N+]1(C)[C@@H]2CC[C@H]1C[C@@H](OC(=O)C(CO)c1ccccc1)C2` (stereo not given in full) [Methylatropine nitrate], the normalised cell viability was found to be 1.11 ± 0.021 (treatment time: 3 days) and 1.15 ± 0.091 (treatment time: 6 days).
Taken in the same sequence, the figures for `COc1cccc(C2(O)CCCCC2CN(C)C)c1` (stereo not given) [Tramadol hydrochloride] were 1.05 ± 0.028 and 1.05 ± 0.076.
Take `CC(CCc1ccccc1)NC(C)C(O)c1ccc(O)cc1` (stereo not given) [Nylidrin]: the normalised cell viability (treatment time: 3 days) worked out at 1.01 ± 0.026 and the normalised cell viability (treatment time: 6 days) was found to be 0.976 ± 0.061.
As for `CC(=O)OC1CN2CCC1CC2` (stereo not given) [Aceclidine Hydrochloride], the normalised cell viability is, setting by setting: (treatment time: 3 days) 0.906 ± 0.019; (treatment time: 6 days) 0.989 ± 0.015.
In the case of `CCCN1C[C@H](CSC)C[C@@H]2c3cccc4[nH]cc(c34)C[C@H]21` [Pergolide mesylate], the normalised cell viability (treatment time: 3 days) came to 1.08 ± 0.048 and the normalised cell viability (treatment time: 6 days) came to 1.01 ± 0.013.
The like results for `CCC(C)C1O[C@]2(C=C[C@@H]1C)C[C@@H]1CC(C/C=C(\C)[C@@H](OC3C[C@H](OC)[C@@H](OC4C[C@H](OC)[C@@H](O)[C@H](C)O4)[C@H](C)O3)[C@@H](C)/C=C/C=C3\COC4[C@H](O)C(C)=CC(C(=O)O1)[C@]34O)O2` (stereo not given in full) [Avermectin B1a] were, in that order, 0.486 ± 0.016 and 0.475 ± 0.052.
Regarding `COc1ccc(CCN)cc1OC` [Homoveratrylamine], the normalised cell viability came out at 1.07 ± 0.039 (treatment time: 3 days) and 1.06 ± 0.041 (treatment time: 6 days).
The like results for `C[C@]12CCC(=O)C=C1CC[C@@H]1[C@@H]2C(=O)C[C@]2(C)C(=O)CC[C@@H]12` [Adrenosterone] were, in that order, 1.19 ± 0.085 and 1.11 ± 0.017.
The like results for `C[N+]1(C)CCOC(O)(c2ccc(-c3ccc(C4(O)C[N+](C)(C)CCO4)cc3)cc2)C1` (stereo not given) [Hemicholinium bromide] were, in that order, 1 ± 0.038 and 1.03 ± 0.05.
Taken in the same sequence, the figures for `O=C(O)CCCc1ccc(N(CCCl)CCCl)cc1` [Chlorambucil] were 0.163 ± 0.01 and 0.227 ± 0.015.
As to `CC[C@@H](C(N)=O)N1CCCC1=O` [Levetiracetam], the normalised cell viability was 0.931 ± 0.042 (treatment time: 3 days) and 0.782 ± 0.021 (treatment time: 6 days).
Consider `COc1ccc(C(=O)N2CCCC2=O)cc1` [Aniracetam], for which the normalised cell viability runs as follows: (treatment time: 3 days) 1.11 ± 0.047; (treatment time: 6 days) 1.06 ± 0.022.
The like results for `CCN[C@@H](C)Cc1cccc(C(F)(F)F)c1` [Dexfenfluramine hydrochloride] were, in that order, 0.908 ± 0.092 and 1.02 ± 0.074.
The like results for `C[CH2][Hg][S]c1ccccc1C(=O)[O-].[Na+]` [Thimerosal] were, in that order, 0.0995 ± 0.0026 and 0.126 ± 0.0061.
Taken in the same sequence, the figures for `COc1ccc2c(c1)[C@]13CCCC[C@@H]1[C@H](C2)N(C)CC3` [Dextromethorphan hydrobromide monohydrate] were 1.17 ± 0.041 and 1.06 ± 0.14.
For `CNCC(O)c1ccc(O)cc1` (racemic) [(+,-)-Synephrine], the normalised cell viability came to 1.05 ± 0.035 (treatment time: 3 days) and 1.02 ± 0.0054 (treatment time: 6 days).
`C[C@]12CC[C@@H](O)C[C@@H]1CC[C@@H]1[C@@H]2CC[C@]2(C)C(=O)CC[C@@H]12` [Androsterone]: the normalised cell viability (treatment time: 3 days) turned out to be 1.07 ± 0.03 and the normalised cell viability (treatment time: 6 days) was determined as 1.05 ± 0.071.
The like results for `C=CC[C@]1(O)CC[C@H]2[C@@H]3CCC4=CC(=O)CCC4=C3C=C[C@@]21C` [Altrenogest] were, in that order, 0.769 ± 0.022 and 0.73 ± 0.068.
The like results for `CC(Cc1ccc(O)cc1)NCC(O)c1cc(O)cc(O)c1` (stereo not given) [Fenoterol hydrobromide] were, in that order, 1.07 ± 0.052 and 1.12 ± 0.15.
Taken in the same sequence, the figures for `C=C1[C@@H]2CC[C@H]3[C@]4(C)C[C@H](O[C@@H]5O[C@H](CO)[C@@H](OS(=O)(=O)O)[C@H](OS(=O)(=O)O)[C@H]5OC(=O)CC(C)C)C[C@@H](C(=O)O)[C@H]4CC[C@]3(C2)[C@@H]1O` [Atractyloside potassium salt] were 1.05 ± 0.051 and 1.09 ± 0.079.
For the molecule `C1CCc2nnnn2CC1` [Pentylenetetrazole], the normalised cell viability came to 1.01 ± 0.085 (treatment time: 3 days) and 1.01 ± 0.087 (treatment time: 6 days).
With `CC(C)CC(N(C)C)C1(c2ccc(Cl)cc2)CCC1` (stereo not given) [Sibutramine HCl], the normalised cell viability was determined as 0.653 ± 0.088 (treatment time: 3 days) and 0.729 ± 0.017 (treatment time: 6 days).
`O=c1[nH]c2ccccc2n1CCCN1CCC(n2c(=O)[nH]c3cc(Cl)ccc32)CC1` [Domperidone] returned a normalised cell viability (treatment time: 3 days) of 1.02 ± 0.011 and a normalised cell viability (treatment time: 6 days) of 1.19 ± 0.15.
The like results for `O=C([O-])c1ccccc1-c1c2cc(Br)c(=O)cc-2oc2[c]([Hg+])c([O-])c(Br)cc12.[Na+].[Na+].[OH-]` [Merbromin] were, in that order, 0.669 ± 0.048 and 0.583 ± 0.016.
`CC(C)[N+](C)(CCC(C(N)=O)(c1ccccc1)c1ccccc1)C(C)C` [Isopropamide iodide]: the normalised cell viability stood at 1.07 ± 0.1 (treatment time: 3 days) and 1.04 ± 0.15 (treatment time: 6 days).
Take `C#C[C@]1(O)CC[C@H]2[C@@H]3CCC4=CC(=O)CC[C@]4(C)[C@H]3CC[C@@]21C` [Ethisterone]: the normalised cell viability reads like this: (treatment time: 3 days) 1.01 ± 0.068; (treatment time: 6 days) 1.05 ± 0.024.
The like results for `S=C(NC1CCCCC1)N1CCC(c2cnc[nH]2)CC1` [Thioperamide maleate] were, in that order, 1 ± 0.018 and 1.02 ± 0.014.
As for `C[C@]12CC[C@H]3[C@@H](CCC4=CC(=O)CC[C@@H]43)[C@@H]1CC[C@@H]2O` [Nandrolone], the normalised cell viability turned out to be 0.993 ± 0.11 (treatment time: 3 days) and 1.02 ± 0.028 (treatment time: 6 days).
The like results for `COc1ccc(CN2CCNCC2)c(OC)c1OC` [Trimetazidine dihydrochloride] were, in that order, 1.05 ± 0.06 and 1.06 ± 0.023.
The like results for `CC(C)N(CCC(C(N)=O)(c1ccccc1)c1ccccn1)C(C)C` (stereo not given) [Disopyramide] were, in that order, 1.08 ± 0.09 and 1.004 ± 0.0085.
Turning to `C[C@H](N)[C@H](O)c1ccc(O)c(O)c1` [Levonordefrin], the normalised cell viability (treatment time: 3 days) came out at 1.05 ± 0.05 and the normalised cell viability (treatment time: 6 days) was 1.02 ± 0.028.
Molecule `O=[N+]([O-])O[C@@H]1CO[C@H]2[C@@H]1OC[C@@H]2O` [Isosorbide mononitrate] had a normalised cell viability (treatment time: 3 days) of 1.04 ± 0.048 and a normalised cell viability (treatment time: 6 days) of 1.02 ± 0.033.
Taken in the same sequence, the figures for `CN1[C@@H]2CC[C@H]1C[C@@H](OC(=O)[C@H](CO)c1ccccc1)C2` [Hyoscyamine (L)] were 1.04 ± 0.088 and 0.959 ± 0.047.
